Our source for the binding signal values is PMC12136788.

The other results are listed elsewhere or left out.

B1: chr3:176767854:176767855:-_ENSG00000177565_ENST00000430069|hu_hu|hu_hu_hu_mus_False|8_58 (ssRNA)
RNA: GGGAGUUCUACAGUCCGACGAUCGACAUCCUUGUUACUGGGCACGUCCUGCCCUCCUUCCCGUAUGCAGUGUCUAAGUACUAACUGCGUAGGGCCACUCGUGCUGUUCUCACUGAGGUUCCAGAUUCUUGCUGUUGAGUCUCCCAACAGAGGAUUGAGCAUCA
B2: 168272914_168273034_492_CDS_ENSG00000130396_ENST00000400822|human|control|control (ssRNA)
RNA: GGGAGUUCUACAGUCCGACGAUCAUCAUCUUUAUCAGAUGCCUGUCGCAAUGCCUCUUUUUCUCUCUUCUUUUUUUCCUUCUUUUCUUUCUUUGAGAGAGUUCUCUUGAAGUUCUGGAUAACCCCUUCUUUUUCCUGCUUUUCCAACAGAGGAUUGAGCAUCA
B3: chr17:31789506:31789507:-_ENSMUSG00000061613_ENSMUST00000166526|mus_hu|motif|central (ssRNA)
RNA: GGGAGUUCUACAGUCCGACGAUCAGACUGGGAAGAGUUUUGAGGGUUACGGUAAAUGUUCAAGAGGGCAAUGGUCUGGCGGAACGUCGGUUUAUUGUGCAACCGAGAGCACCUGUCUCCAUGACGACAUGCUCCAAUUUUGAACAACAGAGGAUUGAGCAUCA
B4: chr4:76721835:76721836:+_ENSG00000138768_ENST00000264904|hu_mus|hu_hu_hu_mus_True|58_58 (ssRNA)
RNA: GGGAGUUCUACAGUCCGACGAUCGUUUGGCUGGGGUUUCUGAGACGCUCUGGAAUAUAACUCAUGUUUGCUAAUAAUCCUAGUUUCCUCUAUGAAAUUCUCUUUGCCAAUCCUCUUCUCUAUUAGUUGCUUUAGUUUCUCUUUCAACAGAGGAUUGAGCAUCA
B5: chr1:50642785:50642786:+_ENSG00000162374_ENST00000371827|hu_hu|motif|central (ssRNA)
RNA: GGGAGUUCUACAGUCCGACGAUCAGUGUUGAUGGCUUUCUCUGCAUCCUUUGGAUCAAUAUAGUUAACAAAUCCAUACCCGGAACUCUGUCCUGUAAUUUUGUCUCUCACAAGUUUGCAGGAUUCUAUUUCACCAAUGCUCCCCAACAGAGGAUUGAGCAUCA
B6: 5921728_5921951_1343_CDS_ENSG00000089195_ENST00000203001|human|control|control (ssRNA)
RNA: GGGAGUUCUACAGUCCGACGAUCCCUGAGGUUGAUGACCCCUCCCCUCUCCCGCAGUUUUGUGUAGCAUUCCAACAGAGGCUCUUUGUACUGACAGUAGACCACAAACGGCCUUGAAGGGGCCACAAAGUCCAGCAAAGACAGCAACAGAGGAUUGAGCAUCA
B7: 107480339_107480459_1678_CDS_ENSMUSG00000020721_ENSMUST00000106746|mouse|control|control (ssRNA)
RNA: GGGAGUUCUACAGUCCGACGAUCGACCCUGGUCAUCACCAGCCGUCCAGCCAAAGUGUCUUCCGAGAGGGUUUCAGUAAGCUUGAAACGACCAAAAAGUUGUCCAUUCUGAGCAUACUUUGCACCCCCAGAAACUCCAGUGAGCAACAGAGGAUUGAGCAUCA
B8: chr12:105553856:105553857:+_ENSG00000136051_ENST00000332180|hu_hu|motif|central (ssRNA)
RNA: GGGAGUUCUACAGUCCGACGAUCAAUUAUAUAGAAAUUUCGGAGAUGUAUAUUCUUUGGCCUUCGAAAUUCUGGAGCAAAAACGUCGGCAAGCAUUUUGAAAUAUUCUGUGCCUUCGGCAGAAUUUCGUGUGUGAUCACUGAGCAACAGAGGAUUGAGCAUCA
B9: chr6:40197388:40197389:+_ENSMUSG00000057716_ENSMUST00000061740|mus_mus|mus_mus_mus_hu_False|58_108 (ssRNA)
RNA: GGGAGUUCUACAGUCCGACGAUCGAGUUGUCAGUUUGGAUUUAUUCCACCUCUGUUUGGGUGCUAGCCACUAAGACAGCUAUUUUGGGAUUCAUGGCCUUGAAUAUCAAGAGGGAAAGGAAGAGGAUGGAAAGAGUCAAGAGUCAACAGAGGAUUGAGCAUCA
B10: chr12:70286429:70286430:+_ENSMUSG00000043998_ENSMUST00000060579|mus_hu|FALSE|FALSE (ssRNA)
RNA: GGGAGUUCUACAGUCCGACGAUCGCACUCUUGCUGCUUCAGUUUCCACAUCUUUUUGAAGACAUGGUAAAAGUCUGGGGCUAAGUAGUGAUCCUCUUCUAGGAAAAGUAUAAGGCCAGCAUAAUCUCGAAGAAUUUUCACUCUCAACAGAGGAUUGAGCAUCA
B11: 103177299_103180828_858_CDS_ENSG00000089902_ENST00000570597|human|control|control (ssRNA)
RNA: GGGAGUUCUACAGUCCGACGAUCUGCUCUAUUUUUAGCUUGUGUGCUAUGUUUUUCUUUUUUGACCUGAGGAACUGUCUCAGUAGGGGGAACCUCCUUUUUGCUUUCCUUGUUUUGAUCAACCUCAAUGUCAAUGGGAUUGUUCAACAGAGGAUUGAGCAUCA
B12: 129792727_129792847_1952_3pUTR_ENSG00000077684_ENST00000452328|human|control|control (ssRNA)
RNA: GGGAGUUCUACAGUCCGACGAUCCAUCACCACACCAUUUUUCUGUUGUGCUGAUAUGAGACGUGCUUCUGCAAAGGUCUUUUCUAAACCCAAAAAGCUCUCUGGGACCACCAUCCCCUCCCUUCUACCACACAGGUCUGGCUGCAACAGAGGAUUGAGCAUCA
B13: chr5:71490416:71490417:+_ENSG00000131711_ENST00000296755|hu_hu|motif|central (ssRNA)
RNA: GGGAGUUCUACAGUCCGACGAUCAUACUGCAUUUCCUUGCUGCUCUUGACUGGAUUAAGCACAUACAUCUCAAGUUUACCGGCUCCCAUUUUUUGGAAAAGAAUGACAGGAUCAAUAGUAUUGCCUACACUUCUAAACAGAGGCAACAGAGGAUUGAGCAUCA
B14: chr3:176740097:176740098:-_ENSG00000177565_ENST00000430069|hu_mus|hu_hu_hu_mus_True|18_68 (ssRNA)
RNA: GGGAGUUCUACAGUCCGACGAUCUGUUUUGUAUACCACAAAAGGAGGCACUUUCAGUAUCUGCAAAAGGUAUUUAAUCCUAAAACAUACUCACCUAGAGGAUAACUCAGGAAAACAUCAAUACAAUCUCUAAGACCUACUCCACAACAGAGGAUUGAGCAUCA
B15: chr11:18503389:18503390:-_ENSG00000074319_ENST00000251968|hu_hu|hu_hu_hu_mus_True|38_38 (ssRNA)
RNA: GGGAGUUCUACAGUCCGACGAUCAUUUUCCAUUUUCUCCAGAGCAGAACUUAGUUCUUCAUCCUUCUUUUUCAAAAGUUCUAUGUUUUUAUCAACUUCGGCUACUUCUUGAUCUAAGCGGGUGACCAUCUCUUCCAGUUUCUGCAACAGAGGAUUGAGCAUCA
B16: chr9:79618081:79618082:-_ENSMUSG00000032328_ENSMUST00000034878|mus_hu|FALSE|FALSE (ssRNA)
RNA: GGGAGUUCUACAGUCCGACGAUCGGUGCCUUAACUAAAGAGAAUGUGCAUACACAUUGCUAUUUGACCUAUAUGCAAAAGUGGAAUGAAAUACAUAGGAAAUUAAGGUUACUGCUUUCAAAAAUUUCUGGAAUAUUAGUACUUCAACAGAGGAUUGAGCAUCA
B17: chr3:71021771:71021772:-_ENSG00000114861_ENST00000475937|hu_mus|FALSE|FALSE (ssRNA)
RNA: GGGAGUUCUACAGUCCGACGAUCCACUGUCCAUACUGCCCCUUUAACGUUCUCUACUCGCACAAAACACUUGUGGAGACUAAGAUUAUGACGCACUGCAUUCUUCCACGUGGCUGCAUUGCGUCGGAAGUAAGCAAACAUUCGCAACAGAGGAUUGAGCAUCA
B18: 76668049_76668169_1430_3pUTR_ENSG00000089916_ENST00000261530|human|control|control (ssRNA)
RNA: GGGAGUUCUACAGUCCGACGAUCUGUGGCAUUUUAAAAAAUGUAGCAGUAGUUGCGUCUGUGGCUUUCUCUGCUGCAGAGGUCCUCACCAACCACUCAGAGCUGGGUGAUUUGGGGGCUUGUGAUGCUGGUGUGGUUGGCUCCCAACAGAGGAUUGAGCAUCA
B19: chrX:35985205:35985206:-_ENSMUSG00000048970_ENSMUST00000058265|mus_hu|motif|central (ssRNA)
RNA: GGGAGUUCUACAGUCCGACGAUCAGGAGCUUGUAGGUGAUGAUGCUCAUGGUGGUGCAUUCUAUUUCCAUGACCAAUCCGGAUGUGUCCUAGCAUAGUGAUCAAAGCACAGAAAAUGCUUCCAAGCAUCACACCCUUCAAAAACAACAGAGGAUUGAGCAUCA
B20: chr11:87793471:87793472:-_ENSMUSG00000020483_ENSMUST00000020775|mus_mus|mus_mus_mus_hu_False|18_108 (ssRNA)
RNA: GGGAGUUCUACAGUCCGACGAUCUGGGGGCUGGGGAAAAAGAAUAAGCUGGAUCCCCCACCCCCCCACAUUGUCAACCCUACACGAGAGUUUUGAAGGCGACUCAUGAAAAUCAGCCUCAAUUGGCGCAAUGACCACCCCACCCAACAGAGGAUUGAGCAUCA
B21: chr17:60770872:60770873:+_ENSG00000011028_ENST00000303375|hu_hu|hu_hu_hu_mus_True|28_108 (ssRNA)
RNA: GGGAGUUCUACAGUCCGACGAUCUCUCUUUUCUUUUAAAAAAAAAGACAAACAAUAAUAGCACAUUUCGAGAAUCAAGAACUACAAUAGAGGGUCCGCUUUGAGUUGUCCAUGUUCUCGUCCUGCACUGGGACACGGGGACUGCAACAGAGGAUUGAGCAUCA
B22: chr7:99593380:99593381:+_ENSMUSG00000052572_ENSMUST00000098308|mus_mus|motif|central (ssRNA)
RNA: GGGAGUUCUACAGUCCGACGAUCCUGGGGUGAGAAGGCUGCCCAACUCUAGGGCAGAGAGCCCAUCAGAGGUUCAUCCCGGUACCUGGUACUUUGAGCAAACCCAAGCCUUCCUGCAUACUGUGAUGUCUUUUCCGUCCCACCCAACAGAGGAUUGAGCAUCA

The target of this test is T1, UNK ZnF1-3 (human, UniProt Q9C0B0 31-174).
T1 sequence: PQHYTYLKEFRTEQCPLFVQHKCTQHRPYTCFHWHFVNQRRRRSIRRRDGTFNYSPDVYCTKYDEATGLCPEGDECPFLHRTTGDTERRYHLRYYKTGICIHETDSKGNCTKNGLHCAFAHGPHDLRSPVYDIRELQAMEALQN
The test can be described thus: nsRBNS (natural sequence RNA bind-n-seq); RBNS binding buffer (assumed for nsRBNS): 25 mM Tris pH 7.5, 150 mM KCl, 3 mM MgCl2, 0.01% Triton X-100, 500 ug/ml BSA, 20 U/ml SUPERase-In, 4 C; UNK is unkempt and MSI1 is Musashi-1; names of the RNAs are library labels; protein concentration not given here; high values mean tight binding.
For the molecule B1, the binding signal stood at 0.561 enrichment R.
Molecule B2 registered a binding signal of 0.264 enrichment R.
Molecule B3 yielded a binding signal of 0.899 enrichment R.
Molecule B4 displayed a binding signal of 0.433 enrichment R.
With B5 the figure was 0.633 enrichment R.
With B6 the figure was 2.05 enrichment R; with B7, 0.585 enrichment R; with B8, 1.35 enrichment R.
For B9 the value was 1.71 enrichment R.
For B10, the binding signal worked out at 0.894 enrichment R.
With B11, the binding signal stood at 0.248 enrichment R.
With B12 the figure was 0.812 enrichment R; with B13, 1.37 enrichment R.
With B14 the figure was 0.907 enrichment R; with B15, 0.347 enrichment R; with B16, 1.89 enrichment R.
With B17 the figure was 0.783 enrichment R; with B18, 0.696 enrichment R; with B19, 0.672 enrichment R.
The molecule B20 showed a binding signal of 1.24 enrichment R.
For B21, the binding signal turned out to be 0.647 enrichment R.
For B22 the value was 1.32 enrichment R.
